In the supplement of paper PMC3334620:
Whole data set: some 33,000 sequences, median “E-score (-0.5 to 0.5)” near -0.013, cut for the highest 2% near 0.3. This is one part of the list.

biological target: T1, Msn1 (UniProt P22148); experiment: PBM E-score (8-mer binding enrichment) (E-score (-0.5 to 0.5)); higher = stronger / more preferred TF binding; most listed sequences are background and not binding sites; settings: protein concentration: 200 nM; construct: GST-full length
T1 sequence: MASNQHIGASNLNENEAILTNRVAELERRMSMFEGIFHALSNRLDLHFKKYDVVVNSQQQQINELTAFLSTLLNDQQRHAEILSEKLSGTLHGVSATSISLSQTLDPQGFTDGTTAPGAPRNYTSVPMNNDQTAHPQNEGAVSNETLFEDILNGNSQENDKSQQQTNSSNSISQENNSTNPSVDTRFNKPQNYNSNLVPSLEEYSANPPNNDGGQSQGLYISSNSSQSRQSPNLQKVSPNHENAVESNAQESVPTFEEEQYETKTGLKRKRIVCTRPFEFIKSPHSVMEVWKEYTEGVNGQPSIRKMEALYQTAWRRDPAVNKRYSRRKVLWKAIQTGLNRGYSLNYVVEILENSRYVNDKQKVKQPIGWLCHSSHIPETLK
How it was run: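 GST-tagged yeast TFs (full-length or DNA-binding domain) were made by PURExpress in vitro transcription/translation and applied at about 100-200 nM to universal all-10-mer Agilent arrays. The arrays were made double-stranded by primer extension, on fresh or once-stripped slides. Bound protein was detected with fluorescent anti-GST, and scans were normalised with masliner. Each ungapped eight-base word, pooled with its reverse complement, received an E-score (modified Wilcoxon-Mann-Whitney statistic) from the Universal PBM Analysis Suite.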

Sequence	PBM E-score
AGACGGAT	0.115
AAGCCGCT	-0.036
ATAGAAAA	0.0535
GAACGCGA	-0.104
CGAATTCG	-0.104
ATATGTAC	0.371
CGCGCACC	-0.107
AGAGCAGA	-0.202
CGTCCAGA	0.0189
GCATATCC	-0.0414
ATCGGATC	0.148
AGGCGTTA	-0.0699
CAATCCAA	-0.059
ACGTGTAC	0.202
CTCGCCGA	0.0708
AGTATAAT	0.213
TACTACCA	-0.283
CAAAGATA	0.075
CCGTGCAG	-0.0768
GACTACTC	-0.076
CCGGACAC	0.288
ATCTTGCA	0.0688
GAAGCACC	-0.175
AAAGTGTG	-0.0758
AAAACTCC	-0.186

Sequence	PBM E-score
CCAACACC	-0.277
GTCGTAAA	0.124
AGAACAAT	0.0106
CGTATAGC	-0.0492
ACCAAAGA	0.205
TAGCAATA	0.111
ATTGGGAG	-0.132
CACTACTC	-0.0939
ATGCACTG	-0.0723
AATATTTA	0.202
TCCACACA	0.0549
AGATCGAC	0.0865
AAATTCGA	0.0548
GGCATTGA	-0.131
GCCAAGGC	-0.272
CAGTGTCG	0.0205
CTAAAAAG	0.157
CCAAATGA	0.05
CGAACGCC	-0.176
AGCGGAAT	0.0579
GATCATTA	-0.0863
AGCTGGGC	-0.242
GCAGTCAA	-0.212
AGTTACAG	-0.0292
ACACGGTC	0.106

Sequence	PBM E-score
CACGATAG	0.0475
CCTTGGTA	0.0834
CACGTCGA	-0.00787
AGGTAGGC	-0.145
AGCACTAA	0.00466
CATTGAGG	-0.0435
CGGGATTC	0.239
CTTTGGTC	0.0752
AACGCTAA	-0.0499
AGTTCTCC	-0.205
ATCCATGG	-0.271
CTAAATCC	-0.0272
GCTTGTAA	0.0964
GAGATCAA	0.0466
CTCACAAG	-0.182
CGTATATA	0.0622
CCTATAGA	-0.00031
CCCCGAAG	-0.00133
AAGCTGAT	-0.024
GAAGGGAC	0.0623
ATGTTTCA	0.0348
CCGGGACC	-0.159
AAGACCAT	-0.0406
GGATCAAA	0.0767
GACAGGTA	0.138

Sequence	PBM E-score
AGGGAGAG	-0.304
GGATCGCC	-0.185
AAAGACGA	0.00839
ACAAGTAC	0.271
CACAGCAC	-0.194
AATTTTCG	0.0628
AGGACAAG	0.472
GGCTACAC	-0.121
CCGCCATA	0.0434
CCCACTCC	-0.166
AAGCCACA	-0.0893
CATCTCCG	0.129
GCACACCA	-0.177
ATTCTTCC	0.0444
TCGCGTCA	0.113
GTCCATTA	0.3
CCCGGAGC	0.0826
ATGTCTGC	0.286
GCACTATA	0.0265
AACGACCC	-0.178
CAGATGGA	0.133
CGCGATAA	0.0372
AACAGGTC	-0.18
TGACAGAA	0.134
ATGAAAAC	0.226

Sequence	PBM E-score
ACTACACA	0.0685
CTCCTAAG	-0.194
GGGTGATA	-0.212
CACAGACA	0.36
CCGATAAA	0.197
ATGCATTG	0.0366
AGGGGCCG	-0.335
ATTACGCA	0.0281
CTATGCCC	-0.181
AAACTGGG	-0.154
GACCATCC	-0.268
AAACCTCT	-0.185
CGAGGTCC	-0.0236
ATTCCATG	0.194
ACCTTGTC	0.176
AGAGTTCC	-0.075
AGAGTCCG	0.0522
ACTCCGTG	0.0483
GATATACA	0.0411
GGAATTAC	0.0804
CGAGGCAC	-0.137
CCGTAATA	-0.0337
CTCGTTTC	0.0421
CGAGAGAA	0.0189
TACGTTGA	-0.0869

Sequence	PBM E-score
CGCTCTCA	-0.22
AATAGGAT	0.157
AGCTTCAA	0.0517
TAGTGTCA	0.102
AGAATCCT	-0.163
AAGACAGC	-0.0127
ATTCACCC	-0.0993
ATTTTAAC	0.0267
TCCCGGAA	0.198
GAAATCGA	0.0782
CCCTTCGA	-0.188
GTGGGGTA	-0.0896
GAGGTTGC	-0.361
AGAACTCC	-0.226
TGTTCGAA	0.112
AACATGAA	-0.0316
ACTCGTTG	-0.00397
AAAGTAGC	-0.0657
AAGCAATC	0.0939
ACTCTGTA	-0.156
ATTACATG	0.0976
ATGACGGG	-0.116
CATGGAAG	-0.121
AACCCCCT	-0.315
TACAGTAA	0.00283

Sequence	PBM E-score
CTTATGAA	-0.0045
CGTTATCA	0.0217
GTTCGAAA	0.191
AAGTTTTA	0.0714
ATAGGTTC	-0.0899
CTATCTTC	0.0439
GCAAACGA	0.0657
ACGCGAGA	-0.00082
GAAGCGGA	0.0317
AGGACTAT	-0.131
GAGCAAAC	-0.0763
CCCCTAAC	-0.169
CCCGGCGA	-0.0393
CATCACAG	-0.14
ATGACCAT	0.0751
CTGCATGA	-0.221
AACGACGT	0.0913
CACGAAGG	-0.0904
AACGCCAT	-0.0232
CCAACGCG	0.0849
CATTGACA	-0.0376
AGTATATG	0.0831
